# In all, about 81,000 sequences were measured (“one-hybrid fitness for binding parS DNA”: median about -0.17, highest 2% from about 0.51 on). Some of the results follow.
# B1: Caulobacter ParB omega fusion; a variant is named by its letters at X, in order, B8GW30 (parent)
# chain: MESVVVGEPGMSEGRRGLGRGLSALLGEVDAAPAQAPGEQLGGSREAPIEILQRNPDQPRRTFREEDLEDLSNSIREKGVLQPILVRPSPDTAGEYQIVAGERAWRAAQRAGLKTVPIMVRELDDLAVLEIGIIENVQRADLNVLEEALSYKVLMEKFERTQENIAQTIGKSXSHVANXMRLLXLPDEVQSYLVSGELTAXHARAIAAAADPVALAKQIIEGGLSVRETEALARKAPNLSAGKSKGGRPPRVKDTDTQALESDLSSVLGLDVSIDHRGSTGTLTITYATLEQLDDLCNRLTRGI
# Variants of: B1
# Test: one-hybrid fitness for binding parS DNA (scaled: cognate 1, non-cognate 0); higher = stronger binding
# Conditions: with parS DNA site
# Summary of the method: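 Selection: bacterial one-hybrid in E. coli USO, HIS3 reporter with the site 19 bp from the promoter, 48 hours at 37°C on M9-minus-histidine plus 0.1 mM IPTG and 5 mM 3-AT. Libraries were Caulobacter ParB with four randomised specificity codons, sequenced on Illumina before and after selection. Fitness is the rescaled log change in variant-to-wild-type read ratio, anchored to the cognate and non-cognate sites.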
row,Variant,one-hybrid fitness for binding parS DNA
1,GLKV,≤ 0.2
2,SACD,0.214
3,PWDA,≤ 0.2
4,TLIH,≤ 0.2
5,ATAA,≤ 0.2
6,LAGW,≤ 0.2
7,QEER,≤ 0.2
8,DFPS,≤ 0.2
9,QYKN,≤ 0.2
10,IVVR,≤ 0.2
11,AMHW,≤ 0.2
12,RSCP,≤ 0.2
13,VIMS,≤ 0.2
14,QSLE,≤ 0.2
15,QESE,≤ 0.2
16,QTNG,≤ 0.2
17,TLPN,≤ 0.2
18,RITL,≤ 0.2
19,NAWT,≤ 0.2
20,NDAL,≤ 0.2
21,FLEL,≤ 0.2
22,MHSS,≤ 0.2
23,QAVW,≤ 0.2
24,LLHM,≤ 0.2
25,QYDW,≤ 0.2

row,Variant,one-hybrid fitness for binding parS DNA
1,FAYS,≤ 0.2
2,DWHW,≤ 0.2
3,VVML,≤ 0.2
4,QDLE,≤ 0.2
5,SVMR,≤ 0.2
6,DLRM,≤ 0.2
7,RVYS,1.04
8,GMQF,≤ 0.2
9,YPGS,≤ 0.2
10,TYLY,≤ 0.2
11,RDMM,≤ 0.2
12,QGFV,≤ 0.2
13,RLWD,≤ 0.2
14,VNIR,≤ 0.2
15,KRMC,≤ 0.2
16,ASSW,≤ 0.2
17,QHLK,≤ 0.2
18,QMMQ,≤ 0.2
19,RYYD,≤ 0.2
20,TPEV,≤ 0.2
21,QRTA,≤ 0.2
22,DLRC,≤ 0.2
23,ESPT,≤ 0.2
24,RYTS,0.904
25,QMAG,≤ 0.2

row,Variant,one-hybrid fitness for binding parS DNA
1,DNKD,≤ 0.2
2,DMYI,≤ 0.2
3,GRSE,≤ 0.2
4,QVAH,≤ 0.2
5,RSEV,≤ 0.2
6,ILLL,≤ 0.2
7,SNDT,≤ 0.2
8,LPAA,≤ 0.2
9,SYLI,≤ 0.2
10,RTLA,0.595
11,VSAW,≤ 0.2
12,MHSC,≤ 0.2
13,YASA,≤ 0.2
14,VHII,≤ 0.2
15,RFVC,0.753
16,YPAV,≤ 0.2
17,WCNL,≤ 0.2
18,QPCL,≤ 0.2
19,NRVM,≤ 0.2
20,STSD,≤ 0.2
21,QTAQ,≤ 0.2
22,YNKS,≤ 0.2
23,RMDP,≤ 0.2
24,CFKG,≤ 0.2
25,NESM,≤ 0.2

row,Variant,one-hybrid fitness for binding parS DNA
1,VGER,≤ 0.2
2,DLYD,≤ 0.2
3,REYM,≤ 0.2
4,SYGM,≤ 0.2
5,LPLY,≤ 0.2
6,HVWM,≤ 0.2
7,AGDD,≤ 0.2
8,ASQY,≤ 0.2
9,KHQP,≤ 0.2
10,MRRK,≤ 0.2
11,IPRG,≤ 0.2
12,ATLG,≤ 0.2
13,WMAS,≤ 0.2
14,RKAN,0.343
15,KTPH,≤ 0.2
16,SYSM,≤ 0.2
17,DTPI,≤ 0.2
18,WHGV,≤ 0.2
19,ELTT,≤ 0.2
20,GSSW,≤ 0.2
21,NQTA,≤ 0.2
22,YSLA,≤ 0.2
23,LRAY,≤ 0.2

# — a collection of fitness landscapes (doi:10.1016/j.celrep.2020.107928)
